The record followed here is PubChem BioAssay (NCI).

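Grown in 96-well plates, cells were treated for 48 hours with each compound at five concentrations. Insufficient inhibition: endpoint recorded as highest concentration tested. GI50 = concentration required for 50% inhibition of growth. Definition used: TGI = concentration required for complete inhibition of growth.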

The subject of the test is NCI-H322M lung. The test is described as follows: NCI anticancer screen, dose series, 48 h.
`O=C(O)C1=CCCc2ccc3ccccc3c21` registered a TGI above 100 µM.

On to `CC(=O)NNc1nc(C)c(C(/C=C/c2ccc([N+](=O)[O-])cc2)=N/N)s1`, for which the TGI was above 100 µM.

As to `N=C(N)c1ccc(OCCOCCOc2ccc(C(=N)N)cc2)cc1`, the GI50 is 79.5 µM and the TGI was above 100 µM.

In the case of `Nc1cc(C(=O)O)[nH]c(=O)n1`, the TGI was above 100 µM.

With `Nc1ncnc2c1ncn2Cc1ccc(C23CC4CC(CC(C4)C2)C3)c(OCc2cc(F)c(F)cc2F)c1`, the GI50 was 9.23 µM and the TGI is above 100 µM.

On to `O=c1ccc(N=Nc2ccc([N+](=O)[O-])cc2)ccc1O`, for which the GI50 is 7.04 µM and the TGI is above 100 µM.

Consider `CCCOC(=O)C1CCC(=O)N1C(=O)C(C)Cl` (stereo not given), for which the TGI was above 100 µM.

For `CC(C)CCC[C@@H](C)[C@H]1CC[C@H]2[C@@H]3CC[C@H]4C[C@H](N)CC[C@]4(C)[C@H]3CC[C@]12C`, the TGI was 27.1 µM.

The compound `CCN1C=C/C(=C\C=C/c2cc[n+](CC)c3ccccc23)c2ccccc21` returned a TGI of 20 µM.

Consider `c1ccc2c(c1)Nc1ccccc1[P+]21c2ccccc2Nc2ccccc21`, for which the TGI was 3.66 µM.

The compound `N#Cc1c2c(c(Nc3cccc(C(F)(F)F)c3)n3c1nc1ccccc13)CCC2` had a TGI above 100 µM.

On to `Cc1oc2c(C)c3oc(=O)cc(C)c3cc2c1CNC(=O)[C@@H]1OCCOCCOCCOCCOCCOC1C(=O)O` (stereo not given in full), for which the TGI was above 100 µM.

With `Cn1cc(C2=C(c3cccc(N)c3)C(=O)NC2=O)c2ccccc21`, the GI50 is above 25 µM and the TGI is above 25 µM.

Take `COc1cc2c(cc1OCCCCCOc1cc3c(cc1OC)C(=O)N1CC(F)C[C@H]1C=N3)N=C[C@@H]1CC(F)CN1C2=O` (stereo not given in full): the GI50 is 0.0702 µM and the TGI is 1.45 µM.

`COc1ccc(C2CC(c3cccc(Nc4ccncc4)c3)=NN2c2ccc(Cl)cc2)cc1` (stereo not given): the GI50 was 1.59 µM and the TGI came out at 3.21 µM.

As for `O=[N+]([O-])c1ccc(-c2nc3ccc([N+](=O)[O-])cc3[nH]2)cc1`, the TGI was above 100 µM.

The compound `CCN(CC)CCCC(C)Nc1ccnc2cc3ccccc3cc12` (stereo not given) gave a TGI of 8.95 µM.

`O=[N+]([O-])c1ccccc1N=Nc1c(O)[nH]c2ccc(Br)cc12` had a TGI of 44.8 µM.

Compound `CN(C)Cc1cc(N=Nc2cccc(Cl)c2)ccc1O` showed a TGI of 61.6 µM.

`COc1ccc2c(c1O)C13CCN(C)C(C2)C1CCC1(C3)OCCO1` (stereo not given) registered a TGI above 100 µM.

The compound `CC(=O)N1CN2C(=O)CCC2c2ccccc21` (stereo not given) came in with a TGI above 100 µM.

`N#Cc1c(NC(=S)Nc2ccc(Cl)cc2)sc2c1CCCC2` came in with a TGI above 100 µM.

In the case of `Cc1ccc(Cc2n[nH]c(=O)n2-c2ccccc2)cc1`, the TGI was above 100 µM.

With `O=C1[C@@H]2C(c3ccc(Cl)cc3Cl)=NO[C@@H]2C(=O)N1c1ccc(Cc2ccc(N3C(=O)[C@H]4C(c5ccc(Cl)cc5Cl)=NO[C@H]4C3=O)cc2)cc1`, the TGI was above 100 µM.

Consider `COC(=O)C1=C(C)NC(C)=C(C(=O)OC)C1/C=C(\Cl)c1ccc(Cl)c(Cl)c1`, for which the GI50 is 17.5 µM and the TGI stood at 33.4 µM.

Compound `CCOC(=O)C[C@@H]1C2(C=C[C@@]13CO3)OCC(C)(C)CO2` displayed a TGI above 100 µM.

As for `Cc1nc(-c2ccccc2)c(Cc2ccccc2O)c(=O)[nH]1`, the TGI was above 100 µM.

Consider `NC(=O)c1cccc(C2OC(COP(=O)(O)O)C(O)C2O)c1` (stereo not given), for which the TGI is above 50 µM.

On to `Cc1c(C#N)c2ccccc2c2nc3ccccc3n12`, for which the TGI was above 100 µM.

In turn, `COc1ccc(N(CN2C(=O)CCC2C(=O)O)C(C)=O)cc1` (stereo not given) displayed a TGI above 100 µM.

Consider `Clc1ccc(/C=C/c2cc(N3CCOCC3)c3cc(Cl)c(Cl)cc3n2)cc1`, for which the GI50 is above 100 µM and the TGI is above 100 µM.

In the case of `CS(=O)(=O)OCC1OC(n2ccc(NC(=O)c3ccccc3)nc2=O)CC1OS(C)(=O)=O` (stereo not given), the TGI was above 100 µM.

`COc1ccc(/C(Cl)=C(/c2ccc(O)cc2)c2ccc(OCCN(C)C)cc2)cc1` yielded a TGI of 23.5 µM.

On to `COC(=O)[C@H](Cc1ccccc1)NC(=O)N1CCCN(C(=O)N[C@@H](Cc2ccccc2)C(=O)OC)CCCN(C(=O)N[C@@H](Cc2ccccc2)C(=O)OC)CCC1`, for which the TGI was 29.2 µM.

Turning to `S=C1Cc2c(-c3ccc(Cl)cc3)cc(-c3ccccc3)nc2-c2ccccc2N1`, the TGI was determined as 29.4 µM.

In turn, `C/C=C1/CN2CCc3c([nH]c4ccccc34)[C@@H]2C[C@@H]1Cc1[nH]ccc2c1[nH]c1cc(=O)ccc12` had a TGI of 3.44 µM.

As for `CCCCCCc1cc2cc(-c3nc4ccccc4[nH]3)c(=Nc3ccccc3C)oc2cc1O`, the GI50 is 10.6 µM and the TGI is above 92.1 µM.

`CCCCCCCC(=O)NCC(O)CNC(=O)CCCCCCC` had a TGI above 100 µM.

Regarding `CC1=NNC(=O)C1C1CC(c2c[nH]c3ccccc23)=NNC1=S` (stereo not given), the TGI is above 100 µM.

For the compound `CCCCOc1ccc(NC(=O)n2nc(N)c3ccccc32)cc1`, the GI50 is 24.4 µM and the TGI was above 84.9 µM.

For the compound `O=c1[nH]cnc2c1sc1nc3ccccc3n12`, the TGI was above 100 µM.

For `O=C1Cc2c([nH]c3c(Cl)cccc23)-c2ccccc2N1`, the TGI is above 100 µM.

Turning to `CCOCN1COCN=C1NC#N`, the TGI was above 100 µM.

On to `Cc1cc(NCCCNc2ccnc3cc(Cl)ccc23)nc(N2CCN(C)CC2)n1`, for which the GI50 is 5.48 µM and the TGI was 50.1 µM.

`O=C(N/N=C(/COc1ccc(Cl)cc1)N=Cc1cccnc1)c1ccncc1` registered a TGI above 100 µM.

As to `CC1(Cl)CC2OC3(Br)C=CC(C)(O)C2(CC1Br)C3(C)C` (stereo not given), the TGI is above 100 µM.

As to `CCCN1CC=C(c2cc(C(=O)OCC)[nH]c2-c2cc(C)no2)C1=O`, the TGI is above 100 µM.

On to `CCN1/C(=C/C=C/c2n(-c3ccccc3)c3ccc(-c4nc5ccccc5s4)cc3[n+]2CC)N(c2ccccc2)c2ccc(-c3nc4ccccc4s3)cc21`, for which the GI50 is 1.4 µM and the TGI was above 50 µM.

`O=C(C=P(c1ccccc1)(c1ccccc1)c1ccccc1)c1cccc(-c2cccc([N+](=O)[O-])c2)c1` displayed a TGI above 100 µM.

Regarding `O=C(Nc1ccc(F)cc1)Nc1ccccc1CNc1nc(Nc2ccc(OCCN3CCCC3)cc2)ncc1Cl`, the GI50 was 1.96 µM and the TGI worked out at 7.96 µM.

As for `O=c1cc(-c2ccc(O)cc2)n(C2CC2)c2ccccc12`, the TGI was found to be 6.92 µM.

Take `CC(C)(C)OC(=O)CC(NC(=O)OC(C)(C)C)C(=O)N[C@@H]1CCCC[C@H]1C(=O)OCc1ccccc1` (stereo not given in full): the TGI was above 100 µM.
